The values that follow come from article PMC4336329 (PLoS ONE, 2015).

The structures appear in SMILES notation. About 2,200 (0.71%) of roughly 310,000 compounds showed an effect of 50% or more. The effect is printed as a negative number. This is one part of the list.

For this test, the target named is human ether-à-go-go-related gene (hERG) potassium channel (human, UniProt Q12809). Put plainly: primary screen, population patch clamp on CHO cells stably expressing hERG.
Chain of human ether-à-go-go-related gene (hERG) potassium channel (Q12809 whole entry, looked up): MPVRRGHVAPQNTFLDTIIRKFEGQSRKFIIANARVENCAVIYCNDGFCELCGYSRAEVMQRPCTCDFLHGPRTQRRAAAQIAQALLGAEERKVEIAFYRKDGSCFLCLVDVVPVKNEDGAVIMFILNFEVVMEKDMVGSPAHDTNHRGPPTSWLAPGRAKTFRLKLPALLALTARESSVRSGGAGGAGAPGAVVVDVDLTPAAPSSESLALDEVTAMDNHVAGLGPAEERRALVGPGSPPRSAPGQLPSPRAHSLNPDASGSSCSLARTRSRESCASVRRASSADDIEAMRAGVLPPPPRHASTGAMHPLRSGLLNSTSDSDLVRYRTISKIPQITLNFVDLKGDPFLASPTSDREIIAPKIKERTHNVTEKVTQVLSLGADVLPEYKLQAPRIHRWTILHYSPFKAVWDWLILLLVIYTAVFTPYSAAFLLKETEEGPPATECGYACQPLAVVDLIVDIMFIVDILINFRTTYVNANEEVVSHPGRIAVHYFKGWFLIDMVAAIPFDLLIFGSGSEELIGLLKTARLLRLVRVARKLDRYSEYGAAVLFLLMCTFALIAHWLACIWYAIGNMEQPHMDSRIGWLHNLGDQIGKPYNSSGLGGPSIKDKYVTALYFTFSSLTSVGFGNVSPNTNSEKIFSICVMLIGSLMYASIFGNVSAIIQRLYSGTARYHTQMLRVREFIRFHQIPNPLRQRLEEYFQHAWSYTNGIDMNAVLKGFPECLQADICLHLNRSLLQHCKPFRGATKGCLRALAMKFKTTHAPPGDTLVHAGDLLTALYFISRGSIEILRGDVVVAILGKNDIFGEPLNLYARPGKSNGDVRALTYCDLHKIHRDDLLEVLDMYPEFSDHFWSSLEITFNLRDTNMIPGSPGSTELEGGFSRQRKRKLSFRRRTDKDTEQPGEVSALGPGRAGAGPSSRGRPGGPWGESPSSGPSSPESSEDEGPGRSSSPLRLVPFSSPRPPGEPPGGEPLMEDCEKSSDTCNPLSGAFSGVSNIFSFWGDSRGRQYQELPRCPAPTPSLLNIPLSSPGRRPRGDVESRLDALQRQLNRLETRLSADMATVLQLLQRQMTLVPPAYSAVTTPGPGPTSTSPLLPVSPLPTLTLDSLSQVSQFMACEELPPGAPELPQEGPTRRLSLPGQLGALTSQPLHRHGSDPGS
Turning to `O=C(CNC(=O)c1ccccc1)Nc1ccsc1C(=O)O`, the “hERG current change (%, negative = inhibition) at 1uM” value is listed as 9.94%.
In the case of `CCOc1ccccc1NC(=O)Nc1cccc(C(C)=O)c1` it was -0.684%; in that of `COc1cc(CNCc2ccccc2)ccc1OCC(O)c1ccccc1.O=C(O)C(=O)O` (centres unmarked), -4.74%; in that of `CCc1ccc(OCC(=O)NNC(=O)C2CCC2)cc1`, -27.4%.
In the case of `COCCN(C(=O)c1ccccc1F)c1c(N)n(Cc2ccccc2)c(=O)[nH]c1=O` it was 9.89%; in that of `COc1ccc(OCC(=O)Nc2ccc(N3CCN(C(=O)c4ccccc4)CC3)c(Cl)c2)cc1`, 9.86%.
In the case of `COc1ccccc1Oc1ccc(Oc2ccccc2OC)cc1`, the “hERG current change (%, negative = inhibition) at 1uM” value was 16.4%.
As for `CC(C)(C)c1ccc(S(=O)(=O)Nc2cccc(C3OCCCO3)c2)cc1`, the figure is 15.6%; as for `CC1(C)Cc2nc3[nH]c(=S)n(-c4ccccc4)c(=O)c3cc2CO1`, 12.4%.
Take `CCOCCCN1C(=O)C(O)=C(C(C)=O)C1c1cccs1` (centres unmarked): the “hERG current change (%, negative = inhibition) at 1uM” value was 14.6%.
For `C=C(C)Cn1c(CCNC(=O)C(C)(C)C)nc2ccccc21`, the “hERG current change (%, negative = inhibition) at 1uM” value is on record as 13.6%.
Take `O=C(Nc1ccc(S(=O)(=O)Nc2nccs2)cc1)c1cccc(N2C(=O)c3ccccc3C2=O)c1`: the “hERG current change (%, negative = inhibition) at 1uM” value turned out to be 6.07%.
As for `COc1cc(C(=O)NCCOc2cc(C)cc(C)c2)cc(OC)c1OC`, the figure is 6.83%; as for `CC(C)n1c(=S)[nH]c2ccccc21`, 10.4%; as for `CCCCCCCNC(=O)C1(CC2CC(c3ccc(Cl)cc3)=NO2)CCN(C(=O)Cc2ccc(F)cc2)CC1` (centres unmarked), 10.1%.
Turning to `N#Cc1ccc(S(=O)(=O)N2CCN(CC(=O)Nc3ccccc3C(=O)NC3CC3)CC2)cc1`, the “hERG current change (%, negative = inhibition) at 1uM” value is given as -67.3%.
As to `Cn1nc([N+](=O)[O-])nc1Sc1ccc(Cl)cc1`, the “hERG current change (%, negative = inhibition) at 1uM” value was found to be 2.69%.
In the case of `CCOc1ccc(S(=O)(=O)NCC(c2ccc3c(c2)OCO3)N2CCN(C)CC2)cc1` (centres unmarked) it was -3.34%; in that of `CCCN(CC(=O)Nc1ccccc1C)C(=O)CC(NC(=O)c1ccccc1)c1ccccc1` (centres unmarked), -6.92%.
In the case of `CCC(=O)Nc1ccc(NC(=O)CSc2nnc(-c3ccco3)n2CC)cc1` it was 6.83%.
As for `CC#CCN(Cc1ccco1)C(=O)C1CCC(=O)N(Cc2ccccc2F)C1` (centres unmarked), the figure is 4.49%; as for `O=C(Nc1ccccn1)C1CCN(S(=O)(=O)c2ccc3c(c2)OCCO3)CC1`, 5.99%; as for `COc1ccc(CNC(=O)Nc2cccc(C)c2)cc1`, 14.3%.
Consider `CCOc1cc(CNCc2ccccc2)ccc1OCc1ccc(Cl)cc1.Cl`, for which the “hERG current change (%, negative = inhibition) at 1uM” value is listed as 6%.
As for `O=C(NCC1CCCO1)c1cc([N+](=O)[O-])ccc1Cl` (centres unmarked), the figure is 8.6%; as for `NC(=O)C1CCN(C(=O)C(=O)c2cn(CC(=O)N3CCCC3)c3ccccc23)CC1`, 16.1%.
Consider `O=C(CSc1ccncc1)Nc1ccc2ccccc2c1`, for which the “hERG current change (%, negative = inhibition) at 1uM” value turned out to be 12.7%.
In the case of `COc1ccc(Cl)cc1NC(=O)CN(C)C(=O)c1cn(-c2ccccc2)nc1-c1cccnc1` it was -19.4%; in that of `COc1ccc(S(=O)(=O)Nc2ccccn2)cc1C`, 9.56%.
Regarding `CCc1ccccc1NC(=O)NC(C)c1ccc2c(c1)OCO2` (centres unmarked), the “hERG current change (%, negative = inhibition) at 1uM” value worked out at 14.6%.
In the case of `CC(C)(C)C(=O)Nc1nnc(SCC(=O)NCc2ccco2)s1`, the “hERG current change (%, negative = inhibition) at 1uM” value was 8.98%.
Regarding `Cc1ccc(C(=O)Nc2ccc3c(c2)C(=O)N(CC2CCCO2)C3=O)cc1` (centres unmarked), the “hERG current change (%, negative = inhibition) at 1uM” value is reported as 7.95%.
With `CC(=C/c1ccco1)/C=N/N1CCN(c2ccccc2)CC1`, the “hERG current change (%, negative = inhibition) at 1uM” value is reported as -1.96%.
In the case of `CCOc1ccccc1NC(=O)C(C)CC` (centres unmarked) it was 6.18%; in that of `COc1ccc(NC(=O)C2C3C=CC4(O3)C2C(=O)N(CCN2CCCCC2)C4C(=O)NC2CCCCC2)cc1` (centres unmarked), 12.8%; in that of `O=C(O)[C@]1(S(=O)(=O)c2ccccc2)C[C@@H]2ON=C(c3cccc(Br)c3)[C@@H]2C1`, 5.67%.
As for `COc1ccc(N2CCN(CC(=O)NCc3ccc(Cl)cc3)CC2)cc1`, the figure is -33%.
For `CCN(CC(=O)Nc1c(F)cccc1F)C(=O)CCSc1ccc(C)cc1`, the “hERG current change (%, negative = inhibition) at 1uM” value is listed as -7%.
As for `CCCCn1c(SCC(=O)N2CCC(C)CC2)nc2cc(S(N)(=O)=O)ccc21`, the “hERG current change (%, negative = inhibition) at 1uM” value was -11.7%.
In the case of `CC(CN1CCC(n2nccc2NC(=O)C2CCCC2)CC1)c1ccccc1` (centres unmarked) it was 2.95%; in that of `CCOC(CCNC(=O)c1cc2c(=O)[nH]c3ccccc3c2s1)OCC`, 12.6%; in that of `CC12CN(C(=O)c3ccco3)CC(c3ccccc3)(CN(C(=O)c3ccco3)C1)C2=O`, 4.85%.
Take `CCC1CN(C(=O)NCc2cccc(OC)c2)c2cc(Cl)ccc2O1` (centres unmarked): the “hERG current change (%, negative = inhibition) at 1uM” value is given as 13.3%.
For the molecule `CCN(C(=O)COC(=O)C1CCN(S(=O)(=O)c2ccc(C)c(C)c2)CC1)C1CCCCC1`, the “hERG current change (%, negative = inhibition) at 1uM” value is listed as 12.4%.
Turning to `CCC(C(=O)OCC(=O)c1c(N)n(CC(C)C)c(=O)n(C)c1=O)c1ccccc1` (centres unmarked), the “hERG current change (%, negative = inhibition) at 1uM” value was found to be 9.28%.
Turning to `O=C(O)CCC(CNS(=O)(=O)c1ccccc1)C(F)(F)F` (centres unmarked), the “hERG current change (%, negative = inhibition) at 1uM” value is reported as 10.4%.
As for `COC(=O)C1=C(C(=O)OC)[C@@H]2N(C)c3ccccc3[C@@]23C[C@@H](CO)N=C3N1`, the figure is 11.9%.
With `CCOc1ccc(NC(=O)CN(C)CC(=O)Nc2ccccc2SC)cc1OCC`, the “hERG current change (%, negative = inhibition) at 1uM” value turned out to be 2.8%.
For the molecule `CCc1nnc(NC(=O)Cc2ccc(S(=O)(=O)N3CCCCC3)cc2)s1`, the “hERG current change (%, negative = inhibition) at 1uM” value amounted to 6.7%.
As for `Cc1ccccc1N(CC(=O)O)S(C)(=O)=O`, the “hERG current change (%, negative = inhibition) at 1uM” value amounted to 9.79%.
In the case of `COc1ccc(C)cc1NC(=O)C(c1ccccc1)N1CCNC(=O)C1` (centres unmarked) it was 10.4%; in that of `CC(=O)c1ccc(NC2=NCCCS2)cc1`, 12%; in that of `Cc1ccccc1OCCN=Cc1c(O)n(C)c(=O)n(C)c1=O`, 10.2%.
As for `Cc1cc(NC(=O)CCCSc2nc(-c3ccco3)cc(C(F)(F)F)n2)n(-c2ccccc2)n1`, the figure is 13%; as for `CCCCCCCc1n[nH]c(=S)n1Cc1ccccc1`, 8.24%.
With `COc1ccc(/C(O)=C2/C(=O)C(=O)N(CCCC(=O)O)C2c2ccc(OC)cc2)cc1` (centres unmarked), the “hERG current change (%, negative = inhibition) at 1uM” value was 11.6%.
Regarding `CCc1cccc(NS(=O)(=O)c2cccc3cccnc23)c1`, the “hERG current change (%, negative = inhibition) at 1uM” value turned out to be 9.17%.
In the case of `CCOC(=O)C1CCCN(S(=O)(=O)c2cc(Br)cc3c2N(C(C)=O)CC3)C1` (centres unmarked) it was 0.423%.
As to `Cc1cc(Cl)ccc1NC(=O)c1ccc2c(c1)OCO2`, the “hERG current change (%, negative = inhibition) at 1uM” value is listed as 13.6%.
As for `Cc1ccc(OCC(=O)O/N=C(\N)c2ccncc2)cc1C`, the figure is 10.7%.
In the case of `Cc1ccc(NP(=O)(Nc2ccc(C)cc2)Nc2ccc(C)cc2)cc1`, the “hERG current change (%, negative = inhibition) at 1uM” value is recorded as 8.75%.
On to `ONC(=Nc1ccccc1)c1ccc(Cl)cc1`, for which the “hERG current change (%, negative = inhibition) at 1uM” value is reported as 1.54%.
In the case of `CN(C(=O)CC1C(=O)NCCN1Cc1ccc(F)cc1)C1CCOCC1` (centres unmarked) it was 11%; in that of `C=CCN1C(=O)c2ccc(C(=O)N(C)Cc3ccc(C)o3)cc2C1=O`, 15.7%.
On to `Cc1cccnc1NC(=O)C(C)Oc1ccccc1` (centres unmarked), for which the “hERG current change (%, negative = inhibition) at 1uM” value was found to be 6.99%.
As for `CC(C)c1nnc(NC(=O)CSc2nnc(-c3ccco3)o2)s1`, the figure is 5.35%.
As for `COc1ccccc1CCNS(=O)(=O)c1cc2c3c(c1)CCN3C(=O)CC2`, the figure is 11.4%.
As for `CNC(=S)N(CCN(C)C)Cc1cc2cc3c(cc2[nH]c1=O)OCO3`, the figure is 6.86%; as for `COc1ccc(CCn2c(N)cc(=O)[nH]c2=S)cc1OC`, 5.71%.
As to `O=C(O)c1ccc(N=NN2CCCCC2)cc1`, the “hERG current change (%, negative = inhibition) at 1uM” value was determined as 0.696%.
With `COc1cc(NC(=O)CSc2ccccc2)c(C(=O)O)cc1OC`, the “hERG current change (%, negative = inhibition) at 1uM” value was 15.5%.
For `Cc1nn(C(C)C(=O)N2CCN(c3ccccn3)CC2)c(=O)c2cc3occc3n12` (centres unmarked), the “hERG current change (%, negative = inhibition) at 1uM” value was 6.34%.
As for `CC(C)(CC(=O)O)CC(=O)NCc1c(Cl)cccc1Sc1ccc(Cl)cc1`, the figure is 3.65%; as for `Cc1cccc(-n2c(O)c(C=Nc3c(C)n(C)n(-c4ccccc4)c3=O)c3ccccc3c2=O)n1`, 11.3%.
As for `COC(=O)c1ccc(N(CC(=O)NC2CCCC2)C(=O)CNC(=O)c2ccco2)cc1`, the figure is -6.95%; as for `CNc1nc(Cl)nc(NC(C)(C)C)n1`, 11.1%.
In the case of `CCc1cccc(NC(=O)C2CCN(S(=O)(=O)c3ccc4[nH]c(=O)ccc4c3)CC2)c1` it was 2.78%.
`Cc1ccc(-n2c(O)c(C=NC3CCCCC3N)c(=O)[nH]c2=O)cc1C` (centres unmarked): the “hERG current change (%, negative = inhibition) at 1uM” value stood at 9.81%.
In the case of `CCc1ccc(OCC(=O)N2c3ccccc3CCc3ccccc32)cc1` it was 1%; in that of `COc1cc(NC(=O)CSc2nnc3ccc(-c4ccncc4)nn23)cc(OC)c1`, -1.12%; in that of `COc1cc(-c2nc(C)c(C(C)=O)n2O)ccc1OCC(=O)Nc1ccc(F)cc1`, -1.77%.
As for `O=C(c1cc(COc2ccc3ncccc3c2)on1)N1CCC(O)CC1`, the “hERG current change (%, negative = inhibition) at 1uM” value is 15.9%.
In the case of `COc1ccc(S(=O)(=O)NCc2cc(=O)n(C)c(=O)n2C)cc1F` it was 6.86%.
In the case of `CCC(C)N(C(=O)COC(=O)c1nc2nc(C)cc(C)n2n1)C1CCS(=O)(=O)C1` (centres unmarked) it was 21.2%.
As for `O=C(NCc1ccccc1)c1cnsn1`, the “hERG current change (%, negative = inhibition) at 1uM” value came to 7.4%.
Consider `O=[N+]([O-])c1c(Nc2ccc(Br)cc2)ccc2nonc12`, for which the “hERG current change (%, negative = inhibition) at 1uM” value is recorded as 9.31%.
As for `O=c1oc2ccccc2c2c1SC(C(F)(F)F)C2` (centres unmarked), the “hERG current change (%, negative = inhibition) at 1uM” value turned out to be 1.61%.
As to `Cc1ccc(S(=O)(=O)NCCNC(=O)CN2CCOCC2)cc1`, the “hERG current change (%, negative = inhibition) at 1uM” value is 11.1%.
In the case of `O=C1c2ccccc2-c2onc3ccc(NCc4ccco4)c1c23` it was 15.3%.
